The whole screen tested about 310,000 compounds, of which about 2,200 (0.71%) showed an effect of 50% or more. Effects have a minus sign here. The list shows a part of the results.
What follows are compounds tested against human ether-à-go-go-related gene (hERG) potassium channel (human, UniProt Q12809) (assay: primary screen, population patch clamp on CHO cells stably expressing hERG).
Chain of human ether-à-go-go-related gene (hERG) potassium channel (Q12809 whole entry, looked up): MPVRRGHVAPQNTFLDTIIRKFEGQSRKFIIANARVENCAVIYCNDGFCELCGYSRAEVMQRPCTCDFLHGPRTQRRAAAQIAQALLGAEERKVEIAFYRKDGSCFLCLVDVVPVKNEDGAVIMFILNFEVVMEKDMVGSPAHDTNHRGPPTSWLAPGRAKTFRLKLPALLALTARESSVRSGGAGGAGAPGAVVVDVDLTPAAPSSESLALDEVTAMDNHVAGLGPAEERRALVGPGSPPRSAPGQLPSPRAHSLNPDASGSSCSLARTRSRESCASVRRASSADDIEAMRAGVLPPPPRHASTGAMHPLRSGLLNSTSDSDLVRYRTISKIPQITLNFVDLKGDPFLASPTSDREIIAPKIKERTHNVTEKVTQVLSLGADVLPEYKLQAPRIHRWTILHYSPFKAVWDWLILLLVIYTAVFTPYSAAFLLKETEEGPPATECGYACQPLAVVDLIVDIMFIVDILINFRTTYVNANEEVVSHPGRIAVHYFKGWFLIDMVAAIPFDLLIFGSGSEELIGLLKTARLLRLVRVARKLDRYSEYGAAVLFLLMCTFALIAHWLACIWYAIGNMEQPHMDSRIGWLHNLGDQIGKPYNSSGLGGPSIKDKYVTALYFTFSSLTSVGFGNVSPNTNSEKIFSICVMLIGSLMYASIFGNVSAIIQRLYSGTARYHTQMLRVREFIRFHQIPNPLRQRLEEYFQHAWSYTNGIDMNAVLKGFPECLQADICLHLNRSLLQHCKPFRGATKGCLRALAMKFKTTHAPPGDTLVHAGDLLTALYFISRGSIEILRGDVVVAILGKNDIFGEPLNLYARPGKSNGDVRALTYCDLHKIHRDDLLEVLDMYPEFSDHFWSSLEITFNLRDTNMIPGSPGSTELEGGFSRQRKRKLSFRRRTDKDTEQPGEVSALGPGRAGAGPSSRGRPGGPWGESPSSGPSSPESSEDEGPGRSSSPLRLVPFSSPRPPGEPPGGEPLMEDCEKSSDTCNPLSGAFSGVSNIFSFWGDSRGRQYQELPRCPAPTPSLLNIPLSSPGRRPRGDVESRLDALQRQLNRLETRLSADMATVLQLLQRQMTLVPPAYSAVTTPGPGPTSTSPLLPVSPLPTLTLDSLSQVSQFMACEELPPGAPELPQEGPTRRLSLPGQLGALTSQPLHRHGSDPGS

SMILES | hERG current change (%, negative = inhibition) at 1uM [%]
Cc1cc(C(=O)Nc2sc3c(c2C#N)CCC(C(C)(C)C)C3)no1 (stereo not drawn) | -3.87
COc1ccc(C(=O)N(C)C2CCCc3ccccc32)cc1OC1CCN(C(C)C)CC1 (stereo not drawn) | -0.15
CC(=O)N1CCN(Cc2nc3cc(NC(=O)c4ccccc4C)ccc3n2C)CC1 | 9.4
O=c1[nH]c(=O)n(Cc2ccccc2)c(O)c1C=NCCCO | -2.99
N#CCNC(=O)C1CC(=O)N(CCc2ccc(F)cc2)C1 (stereo not drawn) | 15.6
COc1cc(N/N=C(\C)c2ccc(N)cc2)nc(-c2ccccc2)n1 | 10
Cc1nc(N2CCC(C)CC2)c2c(C)c(C(=O)Nc3ccc(C)c(F)c3)sc2n1 | 11.6
CCOC(=O)c1ccc2nc(C)c(CCC(C)=O)c(Cl)c2c1 | 7.23
CCOc1ccc(NC(=S)NC(=O)c2cccnc2)c([N+](=O)[O-])c1 | 13
Cc1ccc(S(=O)(=O)N2[C@@H](c3ccc(F)cc3)C(C(=O)O)=CC[C@H]2c2ccc(C(C)C)cc2)cc1 | 17.1
CCC(C)NS(=O)(=O)c1ccc(OCC(=O)N2CCN(CC)CC2)cc1 (stereo not drawn) | 5.37
CCC(C)[C@H](NC(=O)NCc1cccnc1)C(=O)OC (stereo partly drawn) | 12.2
CC1CN(c2ccc([N+](=O)[O-])c3cccnc23)CC(C)N1 (stereo not drawn) | -8.73
Nc1nonc1-n1nnc(C(=O)N/N=C/c2cccc(F)c2)c1CN1CCCCCC1 | 18
Cc1cccc(CC2CC(=O)N(c3ccc([N+](=O)[O-])cc3)C2=O)c1 (stereo not drawn) | -8.02
Cc1nc2c(cc1C(=O)N/N=C/c1ccc([N+](=O)[O-])cc1)c(=O)n(C)c(=O)n2C | -4.68
NC(=O)Cn1cc(/C=N\NS(=O)(=O)c2cccc([N+](=O)[O-])c2)c2ccccc21 | 9.8
COc1cccc(/C=N/NC(=O)C(C)Cn2cnc3ccccc32)c1 (stereo not drawn) | -0.542
Cc1cc2cc(CCNC(=O)C(=O)c3c[nH]c4ccccc34)c(=O)[nH]c2cc1C | 3.28
CCOC(=O)CNC(=O)c1cn(C)c(=O)c2cc(OC)c(OC)cc12 | 12.1
O=C(c1ccc(CSc2ccc(Cl)cc2)cc1)N1CCOCC1 | 5.57
CN(Cc1cccnc1)Cc1cn(C)nc1-c1cccc(Cl)c1 | -1.09
COc1ccc(-c2nnc(SCC(=O)N(Cc3ccccc3)C(C)(C)C)o2)cc1OC | -7.09
O=C(CSc1nnc(-c2ccncc2)n1CC1CCCO1)Nc1nccs1 (stereo not drawn) | 15.9
C=CCOc1ccc(C2/C(=C(/O)c3ccc4c(c3)CC(C)O4)C(=O)C(=O)N2CCCN2CCOCC2)cc1 (stereo not drawn) | 17.2
CCCC[C@@H]1CCCO[C@@](C(=O)NCc2cc(C)n(C)n2)(C(F)(F)F)C1 | 14.9
Cl.O=C(c1c(F)cccc1F)N(Cc1ccccn1)C1CC1 | -0.0127

SMILES | hERG current change (%, negative = inhibition) at 1uM [%]
O=C(Cn1ccc(C(F)(F)F)n1)N=Nc1c(O)[nH]c2ccc(Br)cc12 | 6.45
CC(=O)CC(C)(C)S(=O)(=O)c1ccc(Oc2ccc(S(=O)(=O)C(C)(C)CC(C)=O)cc2)cc1 | 8.08
S=C(NCc1ccco1)N/N=C/c1ccccc1Cl | 0.292
N#CCC(=O)Nc1ccc(C(=O)Nc2ccc3c(c2)OCO3)cc1 | 3.7
CC(=O)c1coc2ccc(OCCN3CCCCC3)cc12 | 3.59
O=C(O)c1ccc(NCc2cccnc2)cc1 | 17.5
Cc1ccccc1NC(=O)C12CC3CCC1(C)C3(C)CO2 (stereo not drawn) | 4.62
COc1ccc(NC(=O)CCNC(=O)Cn2ccc3ccccc3c2=O)cc1OC | 13.9
COc1ccc(CNC(=O)CCC2N=C3c4ccccc4N=C(SCC(=O)NCC4CCCO4)N3C2=O)cc1 (stereo not drawn) | 5.52
O=C(N/N=C/c1cccc(O)c1)c1csc2ccccc12 | 4
CN(C)CCOC(=O)C1(c2ccccc2)CCOCC1.Cl | 2.93
COc1ccc(CN2CCC(Oc3ccc(C(=O)N4CCCCC4)cc3)CC2)cc1C | -3.19
CCCC(NC(=O)Cc1c(C)c2c(cc(C)c3c(C)coc32)oc1=O)C(=O)O (stereo not drawn) | 10.3
Cc1cc(C)c2nc3sc(C(=O)N4CCOCC4)c(N)c3cc2c1 | 6.85
COc1cc(NC(=O)c2cc(C)no2)c(OC)cc1Cl | 9.57
O=C(CC1C(=O)OCC2CCCCN21)Nc1ccccc1C(F)(F)F.O=C(O)C(=O)O (stereo not drawn) | 3.9
CC(=O)c1ccc(NC(=O)[C@@]2(CC(=O)O)CC(/C=C/c3ccccc3)=NO2)cc1 | 12.1
O=C(CSc1nnc(Cc2ccccc2)c(=O)[nH]1)Nc1ccccc1 | -6.94
COc1ccc(OC)c(-n2c(Cn3c(-c4ccccn4)nc4ccccc43)n[nH]c2=S)c1 | 1.47
COc1ccc(C2=NOC(Cn3nc(-c4ccccc4)cc3C(=O)O)C2)cc1 (stereo not drawn) | 21.6
Cl.OC(CNCc1ccc(Cl)c(Cl)c1)c1ccccc1 (stereo not drawn) | 7.33
CCOc1cccc(-c2nnc3sc(COc4ccc(C)cc4)nn23)c1 | 9.47
CCOc1ccc(C(=O)N/N=C/c2cc([N+](=O)[O-])cs2)cc1 | 4.48
CC(CN1CCCC1)OC(=O)COc1ccccc1.Cl (stereo not drawn) | 9.11
COCCn1c(C)cc(C(=O)CSc2nc3ccccc3c(=O)n2C(C)COC)c1C (stereo not drawn) | 16
Cc1c(NC(=O)COC(=O)c2ccc(Br)o2)c(=O)n(-c2ccccc2)n1C | 7.48
O=C1c2ccccc2C(=O)C1C1=Nc2ccccc2NC(c2ccccc2)C1 (stereo not drawn) | 31.6

— article PMC4336329 (PLoS ONE, 2015)
